From PubChem BioAssay AID651820 (National Center for Advancing Translational Sciences (NCATS), 2012)
In all, about 340,000 compounds went through this assay and about 12,000 (3.5%) were called active. The inconclusive results got no clear call from the source; some entries with a clear call stand among them for comparison. Calls come from the whole dose curve; as a rule, active = well fitted inhibition curve with a large enough effect; inconclusive = small, poorly fitted or top-dose-only effect, or another doubt; inactive = no such curve, though single readings can be large or run the other way. Potencies of inconclusive entries are left out as doubtful fits.

experiment: qHTS Assay for Inhibitors of Hepatitis C Virus (HCV); settings: Huh7.5.1 HCVcc-Cre (HCVcc is cell-culture hepatitis C virus) infection, luciferase reporter, 44 h; activity change, negative = inhibition: at 41.8 µM (top of the series) unless noted
Procedure, shortened: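 Antiviral activity was scored by luciferase reporter output from cells infected with HCVcc-Cre (~0.5 moi) in presence of compound, 44 h infection period, cells seeded 1,000/well 4 h prior.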
% is set by controls: 0 for no effect and ±100 for the full control effect; potency is the fitted concentration of half-maximal effect; tags give direction and shape of the fitted curve.

| Structure (SMILES) | Potency | activity change, negative = inhibition |
| --- | --- | --- |
| O=S1(=O)C=C(SCc2ccc(Cl)c(Cl)c2)Nc2ccccc21 | inactive | – |
| O=C(N/N=C/c1c(-c2ccccc2)[nH]c2ccccc12)c1cccnc1 | active: 10 µM | – |
| COc1ccc(C(=O)O/N=C(\N)Cc2cccs2)cc1OC | inconclusive [inhibitor, single point] | – |
| CC(=O)Oc1ccccc1-c1nc(/C=C/c2ccccc2)no1 | inconclusive [inhibitor, single point] | – |
| COc1ccc2nc(NC(=O)CSC3=NCCS3)sc2c1 | inconclusive [inhibitor, partial curve] | – |
| Cc1ccc(S(=O)(=O)NN=C2C3CC4CC(C3)CC2C4)cc1 | inactive | – |
| O=C(Nc1ccc(C(=O)NCCCN2CCN(c3ccc(F)cc3)CC2)cc1)C1=CSCCO1 | inconclusive [inhibitor, partial curve] | – |
| COc1ccc(-c2ccc(=O)n(Cc3cccc([N+](=O)[O-])c3)n2)cc1 | active: 11.2 µM | – |
| Cn1c(CNC(=O)c2ccc(Cl)cc2)nnc1SCC(=O)NC1=NCCS1 | inactive | – |
| CCOc1cc2c(cc1OCC)-n1cccc1C(c1ccc(C(C)C)cc1)NC2 (centres undefined) | inconclusive [inhibitor, single point] | – |
| COc1cc(CN2CCN(C(O)(c3ccccc3)c3ccccc3)CC2)cc(OC)c1OC | inactive | – |
| O=C1c2ccc(Cl)cc2S(=O)(=O)c2cccc(C(=O)N3CCC(Cc4ccccc4)CC3)c21 | inconclusive [inhibitor, single point] | – |
| Cc1ccc2nc(-c3cccnc3SCC(=O)N3c4ccccc4CC3C)[nH]c2c1 (centres undefined) | inconclusive [inhibitor, partial curve] | – |
| O/N=C/c1cc(Cl)ccc1OCc1ccccc1Cl | inactive | – |
| O=S(=O)(c1ccc2c(c1)nc1n2CCC1)N1CCOCC1 | inactive | – |
| O=Cc1[nH]c2ccccc2c1N(C(=O)CCl)c1ccccc1 | – | inconclusive: -33.8% [inhibitor] |
| CC(O)CNc1cc(N)c([N+](=O)[O-])cc1[N+](=O)[O-] (centres undefined) | inactive | – |
| O=C(Nc1ccc(Cn2cccn2)cc1)c1ccc(COc2ccc(Br)cc2)cc1 | inactive | – |
| Cc1ccc(N2CCN(S(=O)(=O)c3ccc(F)cc3)CC2)c(C)c1 | inconclusive [inhibitor, single point] | – |
| Cc1ccc(F)cc1NC(=O)/C=C/c1ccc(S(=O)(=O)N2CCOCC2)cc1 | inconclusive [inhibitor, single point] | – |
| COc1ccc(S(=O)(=O)N2CCCC(C(=O)O)C2)cc1 (centres undefined) | inconclusive [inhibitor, partial curve, poor fit] | – |
| Cc1cc(NC(=O)CSC2=NS(=O)(=O)c3ccccc3N2)no1 | inactive | – |
| CC1CN(S(=O)(=O)c2cccc(C(=O)Nc3cc(Cl)ccc3N3CCOCC3)c2)CC(C)O1 (centres undefined) | inconclusive [inhibitor, partial curve] | – |
| N#Cc1nc(-c2ccc(Cl)cc2)oc1NCc1cccc2c1OCO2 | inconclusive [inhibitor, single point] | – |
| CCC(=O)N1CCN(c2nc3ccc(Br)cc3s2)CC1 | inactive | – |

| Structure (SMILES) | Potency | activity change, negative = inhibition |
| --- | --- | --- |
| COc1ccc(S(=O)(=O)N(C)C[C@H]2Oc3c(NC(=O)Nc4ccc5c(c4)OCO5)cccc3C(=O)N([C@H](C)CO)C[C@@H]2C)cc1 | inconclusive [inhibitor, single point] | – |
| O=C(N/N=C/c1ccco1)c1cc(C2CC2)[nH]n1 | inactive | – |
| COc1ccc(C2CC(c3ccccc3OC(C)=O)=NN2C(C)=O)cc1 (centres undefined) | inconclusive [inhibitor, single point] | – |
| CC1=Nc2cc(C(=O)NCCCOC(C)C)ccc2Sc2ccc(C)cc21 | inactive | – |
| S=C(Nc1ccc(Cl)cc1)Nc1cccc2cnccc12 | inconclusive [inhibitor, single point] | – |
| CN(C)c1nc(N(C)C)nc(N(C#N)Cc2ccc(Cl)cc2)n1 | inconclusive [inhibitor, single point] | – |
| Cc1ccc(S(=O)(=O)N2c3ccccc3-c3c(ssc3=S)C2(C)C)cc1 | inconclusive [inhibitor, single point] | – |
| CC(C)c1ccc(CNC(=O)CCc2ccccc2)cc1 | inactive | – |
| CCOc1cc(CN2CCN(CCc3ccccc3)C(CCO)C2)ccc1OC (centres undefined) | inconclusive [inhibitor, single point] | – |
| CCOC(=O)[C@@H]1[C@H]2COc3ccccc3[C@@H]2N2C(=O)N(c3ccc(C(F)(F)F)cc3)C(=O)[C@@]12C | inactive | – |
| COC(=O)c1cc(=O)n(-c2ccc(F)cc2)c(=Nc2ccc(F)cc2)s1 | inconclusive [inhibitor, partial curve] | – |
| CC(C)(C)NC(=O)c1cc2c(ccc3ccccc32)oc1=O | inactive | – |
| O=C(Nc1c2c(nn1-c1ccc(F)cc1)CSC2)c1ccc(S(=O)(=O)N2CCOCC2)cc1 | inactive | – |
| NC(=O)[C@@H]1CC2(CC(c3cccc(NC(=O)CC(c4ccccc4)c4ccccc4)c3)=NO2)CN1C(=O)COc1ccc(Cl)cc1 (some centres undefined) | inconclusive [inhibitor, full curve] | – |
| c1ccc(C(c2ccccc2)c2ccncc2)cc1 | inconclusive [inhibitor, full curve, poor fit] | – |
| Cc1ccc(NC(=O)Nc2cccs2)c(Cl)c1 | inconclusive [inhibitor, single point] | – |
| Cc1csc(=Nc2cccnc2)n1CC1CCCCC1 | inactive | – |
| Nc1ncc(S(=O)(=O)c2ccc([N+](=O)[O-])cc2)s1 | inactive | – |
| CCN(Cc1ccccc1)C(=S)Nc1cc(C(=O)OC)ccc1C(=O)OC | inconclusive [inhibitor, single point] | – |
| O=C1c2oc3ccc(F)cc3c(=O)c2C(c2ccc(F)cc2)N1CCCN1CCOCC1 (centres undefined) | inactive | – |
| Cc1cc(C)nc(N2N=C(c3ccccc3)CC2=O)n1 | inactive | – |
| CCN1C(C)=C(C)S/C1=C1\SC(=S)N(NC(C)=O)C1=O | inconclusive [inhibitor, single point] | – |
| COc1ccc(CN(C)CC(=O)Nc2ccc(Cl)cc2F)c(OC)c1 | inconclusive [inhibitor, single point] | – |
| CCn1cc([N+](=O)[O-])c(C(=O)Nc2nc3ccc(OC)cc3s2)n1 | inconclusive [inhibitor, partial curve] | – |
| CCOC(=O)c1nn(-c2ccc(C)cc2)cc1C(=O)c1ccccc1 | inconclusive [inhibitor, partial curve] | – |

| Structure (SMILES) | Potency | activity change, negative = inhibition |
| --- | --- | --- |
| CC(=O)c1ccc(NC(=O)Nc2ccc([N+](=O)[O-])cc2)cc1 | inactive | – |
| O=C(c1cccs1)N1CCN(CCc2ccccc2)CC1 | inconclusive [inhibitor, partial curve] | – |
| COc1ccccc1-c1nc(C#N)c(N2CCN(C(=O)c3ccco3)CC2)o1 | inconclusive [inhibitor, partial curve] | – |
| Cc1ccoc1C(=O)NCCNc1ccc(Cl)cc1[N+](=O)[O-] | inconclusive [inhibitor, partial curve] | – |
| CCn1c(SCC(=O)Nc2ccc3c(c2)OCCO3)nc2c(c1=O)SC(C)C2 (centres undefined) | inconclusive [inhibitor, single point] | – |
| O=C(CCCCCNC(=O)c1ccccc1)N/N=C/c1ccco1 | inactive | – |
| CCc1ccccc1N(CC(=O)O)S(C)(=O)=O | inactive | – |
| CC(C)n1cc(/C=C2/NC(=O)N(c3cccc(Cl)c3)C2=O)c2ccccc21 | inconclusive [inhibitor, full curve] | – |
| COc1ccc(C2Nc3ccccc3C(=O)N2Cc2ccco2)cc1COc1ccccc1F (centres undefined) | inconclusive [inhibitor, partial curve] | – |
| Cc1ccc(-n2cc(CN3CCNC(=O)CC3)c(-c3ccc(F)cc3)n2)cc1 | inactive | – |
| Cc1cc(-c2nnc(SCC(=O)Nc3ccccc3C(F)(F)F)o2)c(C)n1-c1ccccc1 | inactive | – |
| COc1ccc(Br)cc1/C=N/N1C(=O)CSC1=S | inactive | – |
| COC(=O)C1=C2c3[nH]c4ccccc4c3CCN2C(=O)CC1 | inconclusive [inhibitor, full curve, poor fit] | – |
| COc1ccc(NS(=O)(=O)c2ccc3c(c2)CCO3)cc1 | inconclusive [inhibitor, single point] | – |
| Cc1cc(C)n(C(=O)CNC(=O)C2COc3ccccc3O2)n1 (centres undefined) | inactive | – |
| Fc1ccc(-c2cc(C(F)(F)F)nc(N3CCCCC3)n2)cc1 | inconclusive [inhibitor, partial curve] | – |
| COc1ccc(N2C(=O)CC(NNC(=O)c3ccc(Br)s3)C2=O)cc1 (centres undefined) | inactive | – |
| CC1CC(C)CN(C2CCCCC2NS(=O)(=O)c2ccc(Cl)cc2)C1 (centres undefined) | inconclusive [inhibitor, single point] | – |
| COc1ccc2cc(C#N)c(SCC(=O)Nc3nonc3C)nc2c1 | inconclusive [inhibitor, partial curve] | – |
| CC(C)(C)OC(=O)N1CCC(C(=O)Nc2cccc(C(=O)NCCc3ccccc3)c2)CC1 | active: 8.91 µM | – |
| CCCCN1C(=O)C(=O)N(CC(=O)c2ccc3c(c2)OCO3)C1=O | inactive | – |
| COc1ccc(OC)c(S(=O)(=O)N2CCC(C(=O)N(C)Cc3ccccc3)CC2)c1 | inactive | – |
| Cc1cccc(NC(=O)c2cccc(OC(=S)N3CCOCC3)c2)c1 | inconclusive [inhibitor, partial curve] | – |
| COc1ccccc1CNC(=O)C1CCC(CNS(=O)(=O)c2ccc(C)cc2)CC1 (centres undefined) | inconclusive [inhibitor, single point] | – |
